Laboratory results published in PubChem BioAssay AID588453 (National Center for Advancing Translational Sciences (NCATS), 2011).
In all, about 390,000 compounds went through this assay and about 4,000 (1%) were called active. This list was built around the results that the source calls inconclusive (neither active nor inactive); the mix of calls is not that of the screen. Calls follow the shape of the dose curve; as a rule, active = well fitted inhibition curve with a large enough effect; inconclusive = small, poorly fitted or top-dose-only effect; inactive = no such curve, though single readings can be large or run the other way. Potencies of inconclusive entries are doubtful fits and often do not repeat.

What follows are compounds tested against Thioredoxin reductase 1, cytoplasmic (Rattus norvegicus) (UniProt O89049) (assay: qHTS Assay for Inhibitors of Mammalian Selenoprotein Thioredoxin Reductase 1 (TrxR1): qHTS). Settings: recombinant rTrxR1, NADPH fluorescence consumption, selenite substrate; series mostly up to 114 µM; activity change, negative = inhibition: at the top concentration.
UniProt O89049, sequence (O89049 whole entry, looked up): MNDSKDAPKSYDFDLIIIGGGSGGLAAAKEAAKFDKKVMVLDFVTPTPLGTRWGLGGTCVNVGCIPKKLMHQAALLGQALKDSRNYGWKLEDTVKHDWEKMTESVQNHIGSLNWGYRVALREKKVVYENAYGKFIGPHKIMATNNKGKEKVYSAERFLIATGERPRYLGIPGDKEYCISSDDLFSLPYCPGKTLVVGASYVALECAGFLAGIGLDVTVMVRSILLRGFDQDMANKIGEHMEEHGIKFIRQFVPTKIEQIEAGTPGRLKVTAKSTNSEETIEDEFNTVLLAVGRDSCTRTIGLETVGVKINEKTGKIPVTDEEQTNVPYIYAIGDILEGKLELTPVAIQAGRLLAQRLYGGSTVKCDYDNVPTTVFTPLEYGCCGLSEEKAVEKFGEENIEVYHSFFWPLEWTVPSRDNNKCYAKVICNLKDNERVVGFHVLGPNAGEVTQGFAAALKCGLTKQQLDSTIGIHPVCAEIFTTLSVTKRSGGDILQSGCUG
Outline: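 Rat TrxR1 (90 nM in the dispensed reagent) was pre-reduced with 400 uM NADPH for 5 min at room temperature, then incubated with compound for 15 min. After 400 uM selenite was added, NADPH fluorescence (Ex 340/Em 450 nm) was followed for 8 min.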
% is scaled to controls: 0 for no effect and ±100 for the full control effect; potency is read from the fitted curve at half-maximal effect; tags tell the direction and shape of the fitted curve.
Also: nearly all actives have a fitted effect of over 65% in size.

Row | SMILES | Potency | activity change, negative = inhibition
1 | NC(N)=NS(=O)(=O)c1ccc(NC(=S)Nc2ccc(F)cc2)cc1 | inconclusive: 79.4 µM [inhibitor, partial curve, poor fit] | 
2 | O=C(C1=C(O)C(=O)N(CCN2CCOCC2)C1c1cccc(F)c1)c1cc2ccccc2o1 (stereo not given) | inconclusive: 50.1 µM [inhibitor, partial curve] | 
3 | CCCCc1cc(=O)oc2cc(C)c(CN3CCCC3)c(O)c12 | inconclusive: 14.1 µM [inhibitor, partial curve, poor fit] | 
4 | CCN(CC)c1ccc(N=Cc2ccc([N+](=O)[O-])o2)cc1 | active: 3.16 µM | 
5 | Cn1c(=O)c2c(ncn2CC(=O)N/N=C/C=C/c2ccco2)n(C)c1=O | inconclusive: 20 µM [inhibitor, single point] | 
6 | CCc1nc(N2CCN(C(=O)c3ccco3)CC2)c2oc3ccccc3c2n1 | inconclusive: 12.6 µM [inhibitor, partial curve, poor fit] | 
7 | COc1ccc(Cn2c(CCC(=O)NCc3ccco3)nc3cccnc32)cc1 | inconclusive: 56.2 µM [inhibitor, partial curve] | 
8 | Cc1sc2nc3ccc(N4CCCC4)nn3c(=O)c2c1C |  | inactive: -6.87%
9 | CCC(C)(C)n1nnnc1C(c1cc2ccc(OC)cc2[nH]c1=O)N1CCCCC1 (stereo not given) | inconclusive: 79.4 µM [inhibitor, single point] | 
10 | Cc1cccc(Sc2c([N+](=O)[O-])ncn2C)c1 | inconclusive: 35.5 µM [inhibitor, partial curve] | 
11 | O=C(c1cccs1)N1CCN(c2ccc(F)cc2)CC1 | inconclusive: 79.4 µM [inhibitor, partial curve] | 
12 | COc1cc(CN2c3ccccc3C(=O)CS2(=O)=O)cc(OC)c1 | inconclusive: 3.16 µM [inhibitor, full curve] | 
13 | CCCc1cc(C(=O)NNC(=S)NCC)c2ccccc2n1 | inconclusive: 56.2 µM [inhibitor, partial curve, poor fit] | 
14 | Cc1nn(-c2ccccn2)c2c1C(=O)C(Br)CC2 (stereo not given) | active: 12.6 µM | 
15 | CN(Cc1ccon1)C(=O)CC1C(=O)NCCN1Cc1cccc(Oc2ccccc2)c1 (stereo not given) | inconclusive: 17.8 µM [inhibitor, partial curve, poor fit] | 
16 | CC(C)C1Oc2ccccc2N(CC(=O)N(Cc2ccccn2)CC2CCCO2)C1=O (stereo not given) |  | inactive: 18.9%
17 | CCOc1ccc(NC(=O)CC2C(=O)OCCN2CC)cc1 (stereo not given) | inconclusive: 70.8 µM [inhibitor, single point] | 
18 | O=C(Nc1ccc(F)cc1F)c1ccc(COc2c(F)c(F)cc(F)c2F)o1 | inconclusive: 12.6 µM [inhibitor, partial curve, poor fit] | 
19 | CCOc1cccc(CNc2ccc(O)cc2)c1OCc1ccc(Cl)cc1Cl | inconclusive: 25.1 µM [inhibitor, partial curve, poor fit] | 
20 | NC(=O)N/N=C/c1ccccc1OC(=O)c1cc2ccccc2oc1=O |  | inactive: 17%
21 | CCCc1c(C)c2ccc(O)c(CN3CCN(c4ccc(F)cc4)CC3)c2oc1=O | inconclusive: 89.1 µM [inhibitor, single point] | 
22 | COC(=O)c1nc(NC(=O)c2ccc(Br)cc2)n[nH]1 | inconclusive: 10 µM [inhibitor, full curve] | 
23 | CC(=O)c1ccc(-c2cccs2)s1 | inconclusive: 44.7 µM [inhibitor, single point] | 
24 | CCOC(=O)c1noc2nc(C)n(CC(=O)Nc3ccccc3F)c(=O)c12 |  | inactive: 1.34% [at 57.1 µM]

Row | SMILES | Potency | activity change, negative = inhibition
25 | COc1cc2c(cc1OC)C(CC(=O)O)N(C(=O)CC1CCCC1)CC2 (stereo not given) | inconclusive: 89.1 µM [inhibitor, single point] | 
26 | CC(C)n1c(=N)c(C(=O)NCCc2ccccc2)cc2c(=O)n3ccccc3nc21 | inconclusive: 63.1 µM [inhibitor, single point] | 
27 | COc1cccc(CNC(=O)c2cc3c(s2)-c2c(C)cccc2OC3)c1 | inconclusive: 35.5 µM [inhibitor, single point] | 
28 | O=C(NC(=S)NCc1ccc(F)cc1)c1ccccc1 | active: 12.6 µM | 
29 | CCC(=O)Nc1cccc(NC(=S)NC(=O)c2cccc(C)c2)c1 | active: 11.2 µM | 
30 | O=C(Nc1ccccn1)c1csc2c1CCCC2 |  | inactive: -2.26%
31 | Cc1cc(C)nc(NC(=O)C2c3ccccc3Oc3ccccc32)n1 |  | inactive: 27.5% [at 57.1 µM]
32 | NNc1nc(-c2ccccc2)cc(-c2ccc(Br)cc2)n1 |  | inactive: -5.57%
33 | CC1CC(C)CN(c2oc(-c3ccc(OCc4ccccc4Cl)cc3)nc2C#N)C1 (stereo not given) |  | inactive: -0.992%
34 | Cc1ccc(Sc2ccc(NC(=O)CCl)cc2)cc1C | inconclusive: 56.2 µM [inhibitor, partial curve, poor fit] | 
35 | Cc1c(C#N)c(NC(=O)CCl)n(Cc2ccccc2)c1C | active: 3.55 µM | 
36 | COc1ccc(C(=O)NCC(=O)N/N=C/c2ccc([N+](=O)[O-])o2)cc1OC | inconclusive: 25.1 µM [inhibitor, single point] | 
37 | CCc1ccccc1N(C)C(=O)Cn1cnc2sc(C)c(S(=O)(=O)N3CCN(c4ncccn4)CC3)c2c1=O |  | inactive: 14.2%
38 | Cc1cc2c(=O)[nH]cnc2s1 | inconclusive: 28.2 µM [inhibitor, single point] | 
39 | O=c1c(Cl)c(Cl)cnn1Cc1ccc(F)cc1 | inconclusive: 28.2 µM [inhibitor, full curve, poor fit] | 
40 | CCCc1cc(C(N)=O)c(NC(=O)c2ccoc2C)s1 |  | inactive: -16.2%
41 | COc1ccc(Nc2nc(NCCCN3CCOCC3)nc(N)c2[N+](=O)[O-])cc1 | inconclusive: 89.1 µM [inhibitor, partial curve, poor fit] | 
42 | CCOc1ccc(N2C(=O)C3Sc4[nH]c(=O)sc4C(/C=C/c4ccccc4)C3C2=O)cc1 (stereo not given) | inconclusive: 63.1 µM [inhibitor, single point] | 
43 | Cc1c(NC(C)c2cc(Cl)ccc2O)c(=O)n(-c2ccccc2)n1C (stereo not given) | inconclusive: 70.8 µM [inhibitor, single point] | 
44 | Cc1cccc(C2Nc3cccc4cccc(c34)N2)c1 | inconclusive: 15.8 µM [inhibitor, full curve] | 
45 | O=C(N/N=C/c1ccc([N+](=O)[O-])o1)c1ccncc1 |  | inactive: -69.5%
46 | C/C=C\C=C\C(=O)N1CC2(CC(c3cccc(NC(=O)CC(c4ccccc4)c4ccccc4)c3)=NO2)C[C@H]1C(N)=O (stereo not given in full) | inconclusive: 22.4 µM [inhibitor, single point] | 
47 | O=C(c1ccc(-c2ccc([N+](=O)[O-])cc2)o1)N1CCCC(C(F)(F)F)C1 (stereo not given) | inconclusive: 70.8 µM [inhibitor, partial curve] | 
48 | Cc1ccc(Nc2c(-c3ccco3)nc3nc(C)cc(C)n23)cc1 | inconclusive: 50.1 µM [inhibitor, partial curve, poor fit] | 

Row | SMILES | Potency | activity change, negative = inhibition
49 | C=C(C(=O)c1ccccc1)C(C)CC(=O)c1ccccc1 (stereo not given) |  | inactive: 22.4% [at 11.4 µM]
50 | COc1ccc(-c2nn(-c3ccccc3)cc2/C=N/O)cc1OC |  | inactive: 13.6%
51 | CSc1ncccc1C(=O)OCC(=O)NCCCc1ccccc1 |  | inactive: 9.86%
52 | Cc1ccc2[nH]c(O)c(N=Nc3ccccc3C)c2c1 | inconclusive: 39.8 µM [inhibitor, partial curve] | 
53 | COc1ccc(/C=N/Nc2cc(C)nc3ccccc23)cc1 |  | inactive: 0.0212%
54 | O=C(NC(=S)Nc1ccccc1Br)c1ccco1 | inconclusive: 89.1 µM [inhibitor, single point] | 
55 | Cc1noc(/C=C/c2ccco2)c1S(=O)(=O)N1CCC(C(=O)N2CCc3ccccc32)CC1 | inconclusive: 17.8 µM [inhibitor, partial curve] | 
56 | Cc1ccc2[nH]c3c(=O)n(CC(=O)N4CCN(C)CC4)ncc3c2c1 | active: 35.5 µM | 
57 | O=C(CN1CCN(C(=O)c2cccc(S(=O)(=O)N3CCCC3)c2)CC1)Nc1ccc(F)cc1 | inconclusive: 79.4 µM [inhibitor, single point] | 
58 | CCOc1ccc(N2C(=O)Cc3ccccc3C2=O)cc1 | inconclusive: 35.5 µM [inhibitor, partial curve, poor fit] | 
59 | Cc1ccc(C(=O)C(NC(=O)c2ccco2)N2CCOCC2)cc1 (stereo not given) | inconclusive: 25.1 µM [inhibitor, single point] | 
60 | CC(=O)Oc1ccccc1C(=O)C=Cc1cccc([N+](=O)[O-])c1 | active: 25.1 µM | 
61 | CCC(=O)c1ccc(OC(=O)c2cnccn2)cc1 | inconclusive: 70.8 µM [inhibitor, partial curve] | 
62 | COc1ccc(C)cc1S(=O)(=O)N1CCN(Cc2ccccc2)CC1 | inconclusive: 35.5 µM [inhibitor, partial curve, poor fit] | 
63 | COc1ccc(Cl)cc1NC(=S)N1CC(C)OC(C)C1 (stereo not given) | inconclusive: 89.1 µM [inhibitor, single point] | 
64 | Cc1ccc(NC(=O)CN2C(=O)N/C(=C\c3ccco3)C2=O)cc1 | inconclusive: 25.1 µM [inhibitor, single point] | 
65 | NC(C(=O)O)c1nn[nH]n1 (stereo not given) |  | inactive: 20.7%
66 | COc1cc(NC(=O)c2ccco2)c(C(=O)O)cc1OC | inconclusive: 35.5 µM [inhibitor, partial curve] | 
67 | Cc1cc(C)n2nc(SCc3ncc(-c4ccccc4)o3)nc2n1 | inconclusive: 56.2 µM [inhibitor, single point] | 
68 | COc1cccc2c1CCc1c-2nc2ccccc2c1C(=O)O | inconclusive: 70.8 µM [inhibitor, single point] | 
69 | CCOC(=O)C1CCN(c2cc(=O)n(-c3ccc(OC)cc3)c(=O)[nH]2)CC1 | inconclusive: 50.1 µM [inhibitor, partial curve, poor fit] | 
70 | Cn1c(SCC(=O)Nc2ccccc2F)nc2c(c1=O)SCC2 |  | inactive: -18.1%
